Measured values published in the supplement of paper PMC8728848.
The list shows a part of the results.

What was measured:
Test in all cases: glycan array binding signal (z-score within array); higher = stronger binding
Conditions in all cases: glycan notation: IUPAC condensed, linker removed
[1] = biological target: Fuc(a1-2)[GalNAc(a1-3)]Gal(b1-4)[Fuc(a1-3)]GlcNAc
Procedure, shortened: (§1)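 The binding signal is a Z-score computed within each array. Data were drawn from 3228 arrays in the Consortium for Functional Glycomics database, restricted to those with a known protein sequence. Scores were averaged over arrays of the same protein sequence at different concentrations or buffers, and over linkers, and negative values can be taken as non-binding.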

[2] = biological target: Fuc(a1-2)[GalNAc(a1-4)]Gal(b1-4)GlcNAc
Procedure, shortened: as §1

Fuc(a1-3)GlcNAc = biological target: Fuc(a1-3)GlcNAc
Procedure, shortened: as §1

[3] = biological target: Fuc(a1-3)[Gal(b1-4)]Glc6S
Procedure, shortened: as §1

[4] = biological target: Fuc(a1-3)[Gal(b1-4)]GlcNAc
Procedure, shortened: as §1

[5] = biological target: Fuc(a1-3)[Gal(b1-4)]GlcNAc(b1-3)Gal(b1-3)[Fuc(a1-4)]GlcNAc
Procedure, shortened: as §1

[6] = biological target: Fuc(a1-3)[Gal(b1-4)]GlcNAc(b1-4)Gal(b1-4)[Fuc(a1-3)]GlcNAc
Procedure, shortened: as §1

[7] = biological target: Fuc(a1-3)[Gal(b1-4)]GlcNAc(b1-4)Gal(b1-4)[Fuc(a1-3)]GlcNAc(b1-4)Gal(b1-4)[Fuc(a1-3)]GlcNAc
Procedure, shortened: as §1

[8] = biological target: Fuc(a1-3)[Gal(b1-4)]GlcNAc6S
Procedure, shortened: as §1

[9] = biological target: Fuc(a1-3)[Gal3S(b1-4)]Glc
Procedure, shortened: as §1

[10] = biological target: Fuc(a1-3)[Gal3S(b1-4)]Glc6S
Procedure, shortened: as §1

[11] = biological target: Fuc(a1-3)[Gal3S(b1-4)]GlcNAc
Procedure, shortened: as §1

[12] = biological target: Fuc(a1-3)[Gal3S(b1-4)]GlcNAc6S
Procedure, shortened: as §1

[13] = biological target: Fuc(a1-3)[GalNAc(b1-4)]Gal(b1-4)GlcNAc
Procedure, shortened: as §1

Fuc(a1-4)GlcNAc = biological target: Fuc(a1-4)GlcNAc
Procedure, shortened: as §1

Fuc(b1-3)GlcNAc = biological target: Fuc(b1-3)GlcNAc
Procedure, shortened: as §1

Gal(a1-2)Gal = biological target: Gal(a1-2)Gal
Procedure, shortened: as §1

Gal(a1-3)Gal = biological target: Gal(a1-3)Gal
Procedure, shortened: as §1

Gal(a1-3)Gal(b1-3)Glc = biological target: Gal(a1-3)Gal(b1-3)Glc
Procedure, shortened: as §1

Gal(a1-3)Gal(b1-3)GlcNAc = biological target: Gal(a1-3)Gal(b1-3)GlcNAc
Procedure, shortened: as §1

Gal(a1-3)Gal(b1-4)GlcNAc = biological target: Gal(a1-3)Gal(b1-4)GlcNAc
Procedure, shortened: as §1

[14] = biological target: Gal(a1-3)Gal(b1-4)[Fuc(a1-3)]GalNAc
Procedure, shortened: as §1

Gal(a1-3)GlcNAc = biological target: Gal(a1-3)GlcNAc
Procedure, shortened: as §1

[15] = biological target: Gal(a1-3)[Gal(a1-4)]Gal(b1-4)GlcNAc
Procedure, shortened: as §1

Gal(a1-4)Gal(b1-4)Gal = biological target: Gal(a1-4)Gal(b1-4)Gal
Procedure, shortened: as §1

Gal(a1-4)Gal(b1-4)GalNAc = biological target: Gal(a1-4)Gal(b1-4)GalNAc
Procedure, shortened: as §1

Gal(a1-4)GlcNAc = biological target: Gal(a1-4)GlcNAc
Procedure, shortened: as §1

Gal(a1-6)Glc = biological target: Gal(a1-6)Glc
Procedure, shortened: as §1

Gal(b1-2)Gal = biological target: Gal(b1-2)Gal
Procedure, shortened: as §1

Gal(b1-3)Gal = biological target: Gal(b1-3)Gal
Procedure, shortened: as §1

Gal(b1-3)GalNAc = biological target: Gal(b1-3)GalNAc
Procedure, shortened: as §1

[16] = biological target: Gal(b1-3)GalNAc(b1-3)Gal(a1-4)Gal(b1-4)Glc
Procedure, shortened: as §1

[17] = biological target: Gal(b1-3)GalNAc(b1-3)Gal(b1-4)Glc
Procedure, shortened: as §1

[18] = biological target: Gal(b1-3)GalNAc(b1-3)Gal(b1-4)GlcNAc
Procedure, shortened: as §1

[19] = biological target: Gal(b1-3)GalNAc(b1-4)Gal(b1-4)Glc
Procedure, shortened: as §1

[20] = biological target: Gal(b1-3)GalNAc(b1-4)[Neu5Ac(a2-3)]Gal(b1-4)Glc
Procedure, shortened: as §1

[21] = biological target: Gal(b1-3)GlcNAc(b1-3)Gal(b1-3)GlcNAc
Procedure, shortened: as §1

B1: STA (Solanum tuberosum) (protein)
chain: NASAPLPYPQCGLKKGGGKCIKTGECCSIWGWCGTTSDYCAPGYCQKQCPGPYPQGRCGWQANGKSCPTGTGQCCSNAGWCGTTSDYCAPNNCQSQCKLPPPPPSPPPPPPSPPPPSPPPPPPSPPPPSPSPPPPPPSPPPPSPPPPSPPPPSPPPPPSPSPPPPPPSPPPPPPPLPYPQCGMKKGGGKCIKTGECCSIWGWCGTTSKYCSPGYCQMQCPDPYPEGRCGWQANGKSCPTGTGQCCSNAGWCGTTSAYCAPVNCQAQCNTTTLTSPIKNRMRGIESFMLNVV
[1]
  glycan array binding signal (z-score): -0.497
[2]
  glycan array binding signal (z-score): 2.13
Fuc(a1-3)GlcNAc
  glycan array binding signal (z-score): -0.511
[3]
  glycan array binding signal (z-score): -0.497
[4]
  glycan array binding signal (z-score): -0.509
[5]
  glycan array binding signal (z-score): -0.509
[6]
  glycan array binding signal (z-score): -0.472
[7]
  glycan array binding signal (z-score): -0.513
[8]
  glycan array binding signal (z-score): -0.451
[9]
  glycan array binding signal (z-score): -0.504
[10]
  glycan array binding signal (z-score): -0.495
[11]
  glycan array binding signal (z-score): -0.491
[12]
  glycan array binding signal (z-score): -0.423
[13]
  glycan array binding signal (z-score): 1.92
Fuc(a1-4)GlcNAc
  glycan array binding signal (z-score): -0.501
Fuc(b1-3)GlcNAc
  glycan array binding signal (z-score): -0.502
Gal(a1-2)Gal
  glycan array binding signal (z-score): -0.488
Gal(a1-3)Gal
  glycan array binding signal (z-score): -0.506
Gal(a1-3)Gal(b1-3)Glc
  glycan array binding signal (z-score): -0.508
Gal(a1-3)Gal(b1-3)GlcNAc
  glycan array binding signal (z-score): -0.499
Gal(a1-3)Gal(b1-4)GlcNAc
  glycan array binding signal (z-score): 3.27
[14]
  glycan array binding signal (z-score): -0.507
Gal(a1-3)GlcNAc
  glycan array binding signal (z-score): -0.506
[15]
  glycan array binding signal (z-score): 2.02
Gal(a1-4)Gal(b1-4)Gal
  glycan array binding signal (z-score): -0.498
Gal(a1-4)Gal(b1-4)GalNAc
  glycan array binding signal (z-score): 1.89
Gal(a1-4)GlcNAc
  glycan array binding signal (z-score): -0.507
Gal(a1-6)Glc
  glycan array binding signal (z-score): -0.5
Gal(b1-2)Gal
  glycan array binding signal (z-score): -0.498
Gal(b1-3)Gal
  glycan array binding signal (z-score): -0.503
Gal(b1-3)GalNAc
  glycan array binding signal (z-score): -0.505
[16]
  glycan array binding signal (z-score): -0.513
[17]
  glycan array binding signal (z-score): -0.496
[18]
  glycan array binding signal (z-score): 0.265
[19]
  glycan array binding signal (z-score): -0.507
[20]
  glycan array binding signal (z-score): -0.504
[21]
  glycan array binding signal (z-score): -0.498
